Data from the supplement of paper PMC8728848.
Some of the results follow.

Legend:
Assay in all cases: glycan array binding signal (z-score within array); higher = stronger binding
Details in all cases: glycan notation: IUPAC condensed, linker removed
[1] = biological target: Neu5Ac(a2-6)Gal(b1-4)GlcNAc(b1-3)Gal(b1-3)GlcNAc
Procedure, shortened: (§1)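 Glycan array data came from 3228 arrays in the Consortium for Functional Glycomics database, and only arrays with an available protein sequence were kept. Glycan names were put into IUPAC-condensed notation, and columns mapping to the same glycan were averaged. The binding signal is a within-array Z-score, averaged across arrays of one protein sequence run at different concentrations or buffers and across linkers. A negative Z-score can be read as non-binding.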

[2] = biological target: Neu5Ac(a2-6)Gal(b1-4)GlcNAc(b1-3)Gal(b1-4)GlcNAc
Procedure, shortened: as §1

[3] = biological target: Neu5Ac(a2-6)Gal(b1-4)GlcNAc(b1-3)Gal(b1-4)GlcNAc(b1-2)Man(a1-3)[Neu5Ac(a2-6)Gal(b1-4)GlcNAc(b1-3)Gal(b1-4)GlcNAc(b1-2)Man(a1-6)]GalNAc
Procedure, shortened: as §1

[4] = biological target: Neu5Ac(a2-6)Gal(b1-4)GlcNAc(b1-3)Gal(b1-4)GlcNAc(b1-3)Gal(b1-4)GlcNAc
Procedure, shortened: as §1

[5] = biological target: Neu5Ac(a2-6)Gal(b1-4)GlcNAc(b1-3)Gal(b1-4)GlcNAc(b1-3)Gal(b1-4)GlcNAc(b1-2)Man(a1-3)[Neu5Ac(a2-6)Gal(b1-4)GlcNAc(b1-3)Gal(b1-4)GlcNAc(b1-3)Gal(b1-4)GlcNAc(b1-2)Man(a1-6)]GalNAc
Procedure, shortened: as §1

[6] = biological target: Neu5Ac(a2-6)Gal(b1-4)GlcNAc(b1-3)Gal(b1-4)GlcNAc(b1-3)GalNAc
Procedure, shortened: as §1

[7] = biological target: Neu5Ac(a2-6)Gal(b1-4)GlcNAc(b1-3)Gal(b1-4)GlcNAc(b1-3)[Neu5Ac(a2-6)Gal(b1-4)GlcNAc(b1-3)Gal(b1-4)GlcNAc(b1-6)]GalNAc
Procedure, shortened: as §1

[8] = biological target: Neu5Ac(a2-6)Gal(b1-4)GlcNAc(b1-3)Gal(b1-4)GlcNAc(b1-6)[Gal(b1-3)]GalNAc
Procedure, shortened: as §1

[9] = biological target: Neu5Ac(a2-6)Gal(b1-4)GlcNAc(b1-3)Gal(b1-4)[Fuc(a1-3)]GlcNAc(b1-3)Gal(b1-4)[Fuc(a1-3)]GlcNAc
Procedure, shortened: as §1

[10] = biological target: Neu5Ac(a2-6)Gal(b1-4)GlcNAc(b1-3)GalNAc
Procedure, shortened: as §1

[11] = biological target: Neu5Ac(a2-6)Gal(b1-4)GlcNAc(b1-3)[Neu5Ac(a2-6)Gal(b1-4)GlcNAc(b1-6)]GalNAc
Procedure, shortened: as §1

[12] = biological target: Neu5Ac(a2-6)Gal(b1-4)GlcNAc(b1-6)GalNAc
Procedure, shortened: as §1

[13] = biological target: Neu5Ac(a2-6)Gal(b1-4)GlcNAc(b1-6)[Gal(b1-3)GlcNAc(b1-3)]Gal(b1-4)Glc
Procedure, shortened: as §1

[14] = biological target: Neu5Ac(a2-6)Gal(b1-4)GlcNAc(b1-6)[Gal(b1-3)]GalNAc
Procedure, shortened: as §1

[15] = biological target: Neu5Ac(a2-6)Gal(b1-4)GlcNAc6S
Procedure, shortened: as §1

[16] = biological target: Neu5Ac(a2-6)GalNAc
Procedure, shortened: as §1

[17] = biological target: Neu5Ac(a2-6)GalNAc(b1-4)GlcNAc
Procedure, shortened: as §1

[18] = biological target: Neu5Ac(a2-6)GalNAc(b1-4)GlcNAc6S
Procedure, shortened: as §1

[19] = biological target: Neu5Ac(a2-6)GlcNAc(b1-4)GlcNAc
Procedure, shortened: as §1

[20] = biological target: Neu5Ac(a2-6)GlcNAc(b1-4)GlcNAc(b1-4)GlcNAc
Procedure, shortened: as §1

[21] = biological target: Neu5Ac(a2-8)Neu5Ac
Procedure, shortened: as §1

[22] = biological target: Neu5Ac(a2-8)Neu5Ac(a2-3)Gal(b1-3)GalNAc(b1-4)[Neu5Ac(a2-3)]Gal(b1-4)Glc
Procedure, shortened: as §1

[23] = biological target: Neu5Ac(a2-8)Neu5Ac(a2-3)Gal(b1-3)GalNAc(b1-4)[Neu5Ac(a2-8)Neu5Ac(a2-3)]Gal(b1-4)Glc
Procedure, shortened: as §1

[24] = biological target: Neu5Ac(a2-8)Neu5Ac(a2-3)Gal(b1-4)Glc
Procedure, shortened: as §1

[25] = biological target: Neu5Ac(a2-8)Neu5Ac(a2-3)Gal(b1-4)GlcNAc
Procedure, shortened: as §1

[26] = biological target: Neu5Ac(a2-8)Neu5Ac(a2-3)[Gal(b1-3)GalNAc(b1-4)]Gal(b1-4)Glc
Procedure, shortened: as §1

[27] = biological target: Neu5Ac(a2-8)Neu5Ac(a2-3)[GalNAc(b1-4)]Gal(b1-4)Glc
Procedure, shortened: as §1

[28] = biological target: Neu5Ac(a2-8)Neu5Ac(a2-8)Neu5Ac
Procedure, shortened: as §1

[29] = biological target: Neu5Ac(a2-8)Neu5Ac(a2-8)Neu5Ac(a2-3)Gal(b1-4)Glc
Procedure, shortened: as §1

[30] = biological target: Neu5Ac(a2-8)Neu5Ac(a2-8)Neu5Ac(a2-3)[Gal(b1-3)GalNAc(b1-4)]Gal(b1-4)Glc
Procedure, shortened: as §1

[31] = biological target: Neu5Ac(a2-8)Neu5Ac(a2-8)Neu5Ac(a2-3)[GalNAc(b1-4)]Gal(b1-4)Glc
Procedure, shortened: as §1

[32] = biological target: Neu5Ac(a2-8)Neu5Ac(a2-8)Neu5Ac(a2-8)Neu5Ac(a2-3)[GalNAc(b1-4)]Gal(b1-4)Glc
Procedure, shortened: as §1

[33] = biological target: Neu5Ac(a2-8)Neu5Gc(a2-3)Gal(b1-4)GlcNAc
Procedure, shortened: as §1

[34] = biological target: Neu5Ac(b1-6)GalNAc
Procedure, shortened: as §1

[35] = biological target: Neu5Ac(b2-6)Gal(b1-4)GlcNAc
Procedure, shortened: as §1

[36] = biological target: Neu5Ac(b2-6)GalNAc
Procedure, shortened: as §1

[37] = biological target: Neu5Ac9Ac(a2-3)Gal(b1-3)GlcNAc
Procedure, shortened: as §1

[38] = biological target: Neu5Ac9Ac(a2-3)Gal(b1-4)GlcNAc
Procedure, shortened: as §1

[39] = biological target: Neu5Ac9Ac(a2-6)Gal(b1-4)GlcNAc
Procedure, shortened: as §1

[40] = biological target: Neu5Gc(a2-3)Gal(b1-3)GlcNAc
Procedure, shortened: as §1

[41] = biological target: Neu5Gc(a2-3)Gal(b1-3)[Fuc(a1-4)]GlcNAc
Procedure, shortened: as §1

[42] = biological target: Neu5Gc(a2-3)Gal(b1-4)Glc
Procedure, shortened: as §1

[43] = biological target: Neu5Gc(a2-3)Gal(b1-4)GlcNAc
Procedure, shortened: as §1

[44] = biological target: Neu5Gc(a2-3)Gal(b1-4)GlcNAc(b1-3)Gal(b1-4)GlcNAc(b1-2)Man(a1-3)[Neu5Gc(a2-3)Gal(b1-4)GlcNAc(b1-3)Gal(b1-4)GlcNAc(b1-2)Man(a1-6)]Man(b1-4)GlcNAc(b1-4)GlcNAc
Procedure, shortened: as §1

[45] = biological target: Neu5Gc(a2-3)Gal(b1-4)[Fuc(a1-3)]GlcNAc
Procedure, shortened: as §1

[46] = biological target: Neu5Gc(a2-6)Gal(b1-4)GlcNAc
Procedure, shortened: as §1

[47] = biological target: Neu5Gc(a2-6)GalNAc
Procedure, shortened: as §1

[48] = biological target: Neu5Gc(a2-8)Neu5Ac(a2-3)Gal(b1-4)GlcNAc
Procedure, shortened: as §1

[49] = biological target: Neu5Gc(a2-8)Neu5Gc(a2-3)Gal(b1-4)GlcNAc
Procedure, shortened: as §1

[50] = biological target: Neu5Gc(a2-8)Neu5Gc(a2-3)Gal(b1-4)GlcNAc(b1-3)Gal(b1-4)GlcNAc
Procedure, shortened: as §1

[51] = biological target: Neu5Gc(a2-8)Neu5Gc(a2-6)Gal(b1-4)GlcNAc
Procedure, shortened: as §1

[52] = biological target: Neu5Gc(b2-6)Gal(b1-4)GlcNAc
Procedure, shortened: as §1

B1: ECA (Erythrina cristagalli), P83410 (protein)
chain: VETISFSFSEFEPGNDNLTLQGAALITQSGVLQLTKINQNGMPAWDSTGRTLYTKPVHMWDSTTGTVASFETRFSFSIEQPYTRPLPADGLVFFMGPTKSKPAQGYGYLGVFNNSKQDNSYQTLAVEFDTFSNPWDPPQVPHIGIDVNSIRSIKTQPFQLDNGQVANVVIKYDAPSKILHVVLVYPSSGAIYTIAEIVDVKQVLPDWVDVGLSGATGAQRDAAETHDVYSWSFQASLPE
[1]
  glycan array binding signal (z-score): -0.449
[2]
  glycan array binding signal (z-score): -0.296
[3]
  glycan array binding signal (z-score): 0.504
[4]
  glycan array binding signal (z-score): -0.578
[5]
  glycan array binding signal (z-score): 5.2
[6]
  glycan array binding signal (z-score): -0.153
[7]
  glycan array binding signal (z-score): 3.23
[8]
  glycan array binding signal (z-score): 0.104
[9]
  glycan array binding signal (z-score): -0.265
[10]
  glycan array binding signal (z-score): -0.045
[11]
  glycan array binding signal (z-score): -0.511
[12]
  glycan array binding signal (z-score): -0.044
[13]
  glycan array binding signal (z-score): -0.061
[14]
  glycan array binding signal (z-score): 0.807
[15]
  glycan array binding signal (z-score): -0.295
[16]
  glycan array binding signal (z-score): -0.295
[17]
  glycan array binding signal (z-score): -0.27
[18]
  glycan array binding signal (z-score): -0.297
[19]
  glycan array binding signal (z-score): -0.33
[20]
  glycan array binding signal (z-score): -0.377
[21]
  glycan array binding signal (z-score): -0.151
[22]
  glycan array binding signal (z-score): 0.193
[23]
  glycan array binding signal (z-score): -0.352
[24]
  glycan array binding signal (z-score): -0.341
[25]
  glycan array binding signal (z-score): -0.418
[26]
  glycan array binding signal (z-score): -0.481
[27]
  glycan array binding signal (z-score): -0.267
[28]
  glycan array binding signal (z-score): -0.233
[29]
  glycan array binding signal (z-score): -0.351
[30]
  glycan array binding signal (z-score): 0.194
[31]
  glycan array binding signal (z-score): -0.05
[32]
  glycan array binding signal (z-score): -0.254
[33]
  glycan array binding signal (z-score): -0.431
[34]
  glycan array binding signal (z-score): -0.273
[35]
  glycan array binding signal (z-score): -0.088
[36]
  glycan array binding signal (z-score): -0.102
[37]
  glycan array binding signal (z-score): -0.113
[38]
  glycan array binding signal (z-score): 0.603
[39]
  glycan array binding signal (z-score): -0.277
[40]
  glycan array binding signal (z-score): -0.312
[41]
  glycan array binding signal (z-score): -0.164
[42]
  glycan array binding signal (z-score): -0.24
[43]
  glycan array binding signal (z-score): -0.327
[44]
  glycan array binding signal (z-score): -0.407
[45]
  glycan array binding signal (z-score): -0.344
[46]
  glycan array binding signal (z-score): -0.221
[47]
  glycan array binding signal (z-score): -0.262
[48]
  glycan array binding signal (z-score): -0.267
[49]
  glycan array binding signal (z-score): -0.361
[50]
  glycan array binding signal (z-score): -0.173
[51]
  glycan array binding signal (z-score): -0.091
[52]
  glycan array binding signal (z-score): -0.247
